# Measured values as given in the supplement of paper PMC11876631.
# ± gives the standard deviation of the averaged measurements. Laboratory Escherichia coli strains with one amino-acid change in an essential protein, pooled on minimal glucose agar with carbenicillin or gentamicin at twice the control MIC (plus kanamycin and chloramphenicol for the plasmids), 48 h. Fold change of barcode share against drug-free plates; higher = less susceptible. Active = above 20 in both replicates (the paper's putatively resistant). '<' = one read or none on drug, '>' = one read or none on a drug-free plate. Shares are relative, so most strains fall below 1 when a few take over. Listed are strains with at least 15 reads on both drug-free plates, and hits; most hits rest on fewer reference reads. Replicate rank correlation about 0.5. Edits are read from barcodes.
# B1: eno L277Q (protein)
# chain: MSKIVKIIGREIIDSRGNPTVEAEVHLEGGFVGMAAAPSGASTGSREALELRDGDKSRFLGKGVTKAVAAVNGPIAQALIGKDAKDQAGIDKIMIDLDGTENKSKFGANAILAVSLANAKAAAAAKGMPLYEHIAELNGTPGKYSMPVPMMNIINGGEHADNNVDIQEFMIQPVGAKTVKEAIRMGSEVFHHLAKVLKAKGMNTAVGDEGGYAPNLGSNAEALAVIAEAVKAAGYELGKDITLAMDCAASEFYKDGKYVLAGEGNKAFTSEEFTHFQEELTKQYPIVSIEDGLDESDWDGFAYQTKVLGDKIQLVGDDLFVTNTKILKEGIEKGIANSILIKFNQIGSLTETLAAIKMAKDAGYTAVISHRSGETEDATIADLAVGTAAGQIKTGSMSRSDRVAKYNQLIRIEEALGEKAPYNGRKEIKGQA
# B2: eno L277D (protein)
# chain: MSKIVKIIGREIIDSRGNPTVEAEVHLEGGFVGMAAAPSGASTGSREALELRDGDKSRFLGKGVTKAVAAVNGPIAQALIGKDAKDQAGIDKIMIDLDGTENKSKFGANAILAVSLANAKAAAAAKGMPLYEHIAELNGTPGKYSMPVPMMNIINGGEHADNNVDIQEFMIQPVGAKTVKEAIRMGSEVFHHLAKVLKAKGMNTAVGDEGGYAPNLGSNAEALAVIAEAVKAAGYELGKDITLAMDCAASEFYKDGKYVLAGEGNKAFTSEEFTHFDEELTKQYPIVSIEDGLDESDWDGFAYQTKVLGDKIQLVGDDLFVTNTKILKEGIEKGIANSILIKFNQIGSLTETLAAIKMAKDAGYTAVISHRSGETEDATIADLAVGTAAGQIKTGSMSRSDRVAKYNQLIRIEEALGEKAPYNGRKEIKGQA
# B3: eno L277P (protein)
# chain: MSKIVKIIGREIIDSRGNPTVEAEVHLEGGFVGMAAAPSGASTGSREALELRDGDKSRFLGKGVTKAVAAVNGPIAQALIGKDAKDQAGIDKIMIDLDGTENKSKFGANAILAVSLANAKAAAAAKGMPLYEHIAELNGTPGKYSMPVPMMNIINGGEHADNNVDIQEFMIQPVGAKTVKEAIRMGSEVFHHLAKVLKAKGMNTAVGDEGGYAPNLGSNAEALAVIAEAVKAAGYELGKDITLAMDCAASEFYKDGKYVLAGEGNKAFTSEEFTHFPEELTKQYPIVSIEDGLDESDWDGFAYQTKVLGDKIQLVGDDLFVTNTKILKEGIEKGIANSILIKFNQIGSLTETLAAIKMAKDAGYTAVISHRSGETEDATIADLAVGTAAGQIKTGSMSRSDRVAKYNQLIRIEEALGEKAPYNGRKEIKGQA
# B4: argA V62Q (protein)
# chain: MVKERKTELVEGFRHSVPYINTHRGKTFVIMLGGEAIEHENFSSIVNDIGLLHSLGIRLVVQYGARPQIDANLAAHHHEPLYHKNIRVTDAKTLELVKQAAGTLQLDITARLSMSLNNTPLQGAHINVVSGNFIIAQPLGVDDGVDYCHSGRIRRIDEDAIHRQLDSGAIVLMGPVAVSVTGESFNLTSEEIATQLAIKLKAEKMIGFCSSQGVTNDDGDIVSELFPNEAQARVEAQEEKGDYNSGTVRFLRGAVKACRSGVRRCHLISYQEDGALLQELFSRDGIGTQIVMESAEQIRRATINDIGGILELIRPLEQQGILVRRSREQLEMEIDKFTIIQRDNTTIACAALYPFPEEKIGEMACVAVHPDYRSSSRGEVLLERIAAQAKQSGLSKLFVLTTRSIHWFQERGFTPVDIDLLPESKKQLYNYQRKSKVLMADLG
# B5: argA V62P (protein)
# chain: MVKERKTELVEGFRHSVPYINTHRGKTFVIMLGGEAIEHENFSSIVNDIGLLHSLGIRLVVPYGARPQIDANLAAHHHEPLYHKNIRVTDAKTLELVKQAAGTLQLDITARLSMSLNNTPLQGAHINVVSGNFIIAQPLGVDDGVDYCHSGRIRRIDEDAIHRQLDSGAIVLMGPVAVSVTGESFNLTSEEIATQLAIKLKAEKMIGFCSSQGVTNDDGDIVSELFPNEAQARVEAQEEKGDYNSGTVRFLRGAVKACRSGVRRCHLISYQEDGALLQELFSRDGIGTQIVMESAEQIRRATINDIGGILELIRPLEQQGILVRRSREQLEMEIDKFTIIQRDNTTIACAALYPFPEEKIGEMACVAVHPDYRSSSRGEVLLERIAAQAKQSGLSKLFVLTTRSIHWFQERGFTPVDIDLLPESKKQLYNYQRKSKVLMADLG
# B6: argA V60A (protein)
# chain: MVKERKTELVEGFRHSVPYINTHRGKTFVIMLGGEAIEHENFSSIVNDIGLLHSLGIRLAVVYGARPQIDANLAAHHHEPLYHKNIRVTDAKTLELVKQAAGTLQLDITARLSMSLNNTPLQGAHINVVSGNFIIAQPLGVDDGVDYCHSGRIRRIDEDAIHRQLDSGAIVLMGPVAVSVTGESFNLTSEEIATQLAIKLKAEKMIGFCSSQGVTNDDGDIVSELFPNEAQARVEAQEEKGDYNSGTVRFLRGAVKACRSGVRRCHLISYQEDGALLQELFSRDGIGTQIVMESAEQIRRATINDIGGILELIRPLEQQGILVRRSREQLEMEIDKFTIIQRDNTTIACAALYPFPEEKIGEMACVAVHPDYRSSSRGEVLLERIAAQAKQSGLSKLFVLTTRSIHWFQERGFTPVDIDLLPESKKQLYNYQRKSKVLMADLG
# B7: argA V60Q (protein)
# chain: MVKERKTELVEGFRHSVPYINTHRGKTFVIMLGGEAIEHENFSSIVNDIGLLHSLGIRLQVVYGARPQIDANLAAHHHEPLYHKNIRVTDAKTLELVKQAAGTLQLDITARLSMSLNNTPLQGAHINVVSGNFIIAQPLGVDDGVDYCHSGRIRRIDEDAIHRQLDSGAIVLMGPVAVSVTGESFNLTSEEIATQLAIKLKAEKMIGFCSSQGVTNDDGDIVSELFPNEAQARVEAQEEKGDYNSGTVRFLRGAVKACRSGVRRCHLISYQEDGALLQELFSRDGIGTQIVMESAEQIRRATINDIGGILELIRPLEQQGILVRRSREQLEMEIDKFTIIQRDNTTIACAALYPFPEEKIGEMACVAVHPDYRSSSRGEVLLERIAAQAKQSGLSKLFVLTTRSIHWFQERGFTPVDIDLLPESKKQLYNYQRKSKVLMADLG
# B8: erpA V70Q (protein)
# chain: MSDDVALPLEFTDAAANKVKSLIADEDNPNLKLRVYITGGGCSGFQYGFTFDDQVNEGDMTIEKQGVGLQVDPMSLQYLVGGSVDYTEGLEGSRFIVTNPNAKSTCGCGSSFSI
# B9: argA V60P (protein)
# chain: MVKERKTELVEGFRHSVPYINTHRGKTFVIMLGGEAIEHENFSSIVNDIGLLHSLGIRLPVVYGARPQIDANLAAHHHEPLYHKNIRVTDAKTLELVKQAAGTLQLDITARLSMSLNNTPLQGAHINVVSGNFIIAQPLGVDDGVDYCHSGRIRRIDEDAIHRQLDSGAIVLMGPVAVSVTGESFNLTSEEIATQLAIKLKAEKMIGFCSSQGVTNDDGDIVSELFPNEAQARVEAQEEKGDYNSGTVRFLRGAVKACRSGVRRCHLISYQEDGALLQELFSRDGIGTQIVMESAEQIRRATINDIGGILELIRPLEQQGILVRRSREQLEMEIDKFTIIQRDNTTIACAALYPFPEEKIGEMACVAVHPDYRSSSRGEVLLERIAAQAKQSGLSKLFVLTTRSIHWFQERGFTPVDIDLLPESKKQLYNYQRKSKVLMADLG
# B10: accA V196A (protein)
# chain: MSLNFLDFEQPIAELEAKIDSLTAVSRQDEKLDINIDEEVHRLREKSVELTRKIFADLGAWQIAQLARHPQRPYTLDYVRLAFDEFDELAGDRAYADDKAIVGGIARLDGRPVMIIGHQKGRETKEKIRRNFGMPAPEGYRKALRLMQMAERFKMPIITFIDTPGAYPGVGAEERGQSEAIARNLREMSRLGVPVACTVIGEGGSGGALAIGVGDKVNMLQYSTYSVISPEGCASILWKSADKAPLAAEAMGIIAPRLKELKLIDSIIPEPLGGAHRNPEAMAASLKAQLLADLADLDVLSTEDLKNRRYQRLMSYGYA
# B11: erpA L69A (protein)
# chain: MSDDVALPLEFTDAAANKVKSLIADEDNPNLKLRVYITGGGCSGFQYGFTFDDQVNEGDMTIEKQGVGAVVDPMSLQYLVGGSVDYTEGLEGSRFIVTNPNAKSTCGCGSSFSI
# B12: erpA L69W (protein)
# chain: MSDDVALPLEFTDAAANKVKSLIADEDNPNLKLRVYITGGGCSGFQYGFTFDDQVNEGDMTIEKQGVGWVVDPMSLQYLVGGSVDYTEGLEGSRFIVTNPNAKSTCGCGSSFSI
# B13: fabA M87A (protein)
# chain: MVDKRESYTKEDLLASGRGELFGAKGPQLPAPNMLMMDRVVKMTETGGNFDKGYVEAELDINPDLWFFGCHFIGDPVMPGCLGLDAAWQLVGFYLGWLGGEGKGRALGVGEVKFTGQVLPTAKKVTYRIHFKRIVNRRLIMGLADGEVLVDGRLIYTASDLKVGLFQDTSAF
# B14: fabA M87W (protein)
# chain: MVDKRESYTKEDLLASGRGELFGAKGPQLPAPNMLMMDRVVKMTETGGNFDKGYVEAELDINPDLWFFGCHFIGDPVMPGCLGLDAWWQLVGFYLGWLGGEGKGRALGVGEVKFTGQVLPTAKKVTYRIHFKRIVNRRLIMGLADGEVLVDGRLIYTASDLKVGLFQDTSAF
# Target: Escherichia coli (laboratory strain)
# Experiment: barcode share on antibiotic plates over drug-free plates; higher = less susceptible
# Settings: antibiotic: carbenicillin; 2× MIC (3.1 µg/mL)
# Method: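 A pool of E. coli strains, each edited to carry one amino-acid change in an essential protein, was grown for 48 h on minimal glucose agar with or without antibiotic; strain barcodes were sequenced; mean of two replicates.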
row,Protein,fold change of barcode share
1,B1,0.164 ± 0.11
2,B2,0.563 ± 0.35
3,B3,0.258 ± 0.11
4,B4,0.385 ± 0.014
5,B5,1.16 ± 0.21
6,B6,0.444 ± 0.1
7,B7,0.585 ± 0.24
8,B8,0.646 ± 0.18
9,B9,0.528 ± 0.033
10,B10,0.257 ± 0.043
11,B11,0.437 ± 0.16
12,B12,0.816 ± 0.28
13,B13,0.384 ± 0.19
14,B14,0.488 ± 0.034

# Same assay, conditions: antibiotic: gentamicin; 2× MIC (MIC 0.45 µg/mL)
row,Protein,fold change of barcode share
1,B1,< 0.00568
2,B2,0.0984 ± 0.034
3,B3,< 0.00403
4,B4,0.0116 ± 0.0087
5,B6,0.0322 ± 0.024
6,B9,0.00933 ± 0.0081
7,B10,0.0546 ± 0.068
8,B11,0.0137 ± 0.0046
9,B12,0.0495 ± 0.039
10,B13,< 0.0177
11,B14,0.0394 ± 0.042
